Test results reported in PubChem BioAssay AID588342 (National Center for Advancing Translational Sciences (NCATS), 2011).
The whole screen tested about 360,000 compounds, of which about 25,000 (6.9%) were called active. Inconclusive means that the source gave no clear call. Such entries were picked first, then a sample of the others. Calls come from the whole dose curve; as a rule, active = well fitted inhibition curve with a large enough effect; inconclusive = small, poorly fitted or top-dose-only effect; inactive = flat fitted curve, though single readings scatter. Potencies of inconclusive entries are doubtful fits and often do not repeat.

Target: Luciferin 4-monooxygenase (Photinus pyralis) (UniProt P08659)
Assay: qHTS profiling assay for firefly luciferase inhibitor/activator using purifed enzyme and Km concentrations of substrates (counterscreen for miR-21 project); note: nearly all actives have a fitted effect of over 55% in size
Conditions: purified FLuc, luminescence inhibition; series mostly up to 57.5 µM
Summary of the method: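 Biochemical qHTS of compounds, final roughly 60 µM downward over six points, against 10 nM purified firefly luciferase using Km concentrations of substrates (10 uM D-luciferin, 10 uM ATP) in Tris acetate pH 7.5 buffer; luminescence output.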
Potency is the fitted concentration of half-maximal effect; tags give direction and shape of the fitted curve.

Chain of UniProt P08659 (P08659 whole entry, looked up): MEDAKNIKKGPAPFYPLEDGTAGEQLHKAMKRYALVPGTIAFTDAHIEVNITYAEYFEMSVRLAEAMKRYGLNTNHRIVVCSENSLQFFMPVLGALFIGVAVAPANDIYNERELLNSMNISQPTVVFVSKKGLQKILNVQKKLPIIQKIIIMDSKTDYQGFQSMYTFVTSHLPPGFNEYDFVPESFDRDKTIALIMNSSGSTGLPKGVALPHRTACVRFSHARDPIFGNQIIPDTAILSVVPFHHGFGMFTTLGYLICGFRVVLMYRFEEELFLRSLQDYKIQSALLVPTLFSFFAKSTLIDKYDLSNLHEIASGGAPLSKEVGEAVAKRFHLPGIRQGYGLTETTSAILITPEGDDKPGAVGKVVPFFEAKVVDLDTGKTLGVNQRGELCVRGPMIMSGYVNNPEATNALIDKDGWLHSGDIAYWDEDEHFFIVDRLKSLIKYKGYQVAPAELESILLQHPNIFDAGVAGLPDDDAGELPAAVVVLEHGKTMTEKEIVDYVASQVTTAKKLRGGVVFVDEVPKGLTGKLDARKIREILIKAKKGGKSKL

Structure (SMILES) | Potency
COCCCN(Cc1ccco1)C(=O)c1cc2c(s1)-c1ccccc1OC2 | inconclusive: 23.9 µM [inhibitor, partial curve, poor fit]
O=C(NCCn1ccc2ccccc21)c1ccc(S(=O)(=O)N2CCCCC2)cc1 | inactive
COc1ccc(/C=C2\SC(=O)N(CC(=O)N(C)C3CCS(=O)(=O)C3)C2=O)cc1 (stereo unspecified) | inconclusive: 23.9 µM [inhibitor, partial curve]
C/C(O)=C(/C=Nc1ccccc1)C(=O)Nc1ccccc1 | inconclusive: 37.9 µM [inhibitor, partial curve, poor fit]
CC(C)COc1ccc(C(=O)Nc2ccc(NC(=O)c3ccco3)c(Cl)c2)cc1 | inactive
CC12CCC(=O)N1C(C(=O)Nc1nc(-c3ccccc3Cl)cs1)CS2 (stereo unspecified) | inconclusive: 19 µM [inhibitor, partial curve, poor fit]
COc1ccc(-c2ccnc(-c3ccc(OCCCF)cc3)n2)cc1 | inconclusive: 21.3 µM [inhibitor, partial curve, poor fit]
COc1ccccc1C(=O)N1CCc2ccccc21 | inactive
Cc1ccccc1-c1noc(-c2ccc(N3CCN(c4ccccc4)CC3)c([N+](=O)[O-])c2)n1 | inconclusive: 16.9 µM [inhibitor, partial curve]
C=CCn1c(SCC(=O)Nc2ccc(-c3nc4ccc(C)cc4s3)cc2)nnc1-c1ccncc1 | inconclusive: 13.5 µM [inhibitor, partial curve]
Cn1cccc1-c1cc(C(=O)N/N=C/c2ccc(Cl)cc2)[nH]n1 | inconclusive: 37.9 µM [inhibitor, partial curve, poor fit]
COC(=O)C1C(=O)c2c([nH]c(C(=O)OC3CCCC3C)c2C)CC1C (stereo unspecified) | active: 2.39 µM
COc1ccc(OCC(=O)Nc2ccncc2)cc1 | inconclusive: 26.9 µM [inhibitor, partial curve]
C=CCn1c(C(O)c2ccccc2)nc2ccccc21 (stereo unspecified) | inconclusive: 37.9 µM [inhibitor, partial curve, poor fit]
Cc1ccc(/C=N/NC(=O)c2ccccc2OCc2cccc(Br)c2)o1 | inconclusive: 37.9 µM [inhibitor, single point]
Cc1ccc(C(=O)NCCc2c[nH]c3ccccc23)c(C)c1 | active: 6.75 µM
CC1=NN(C(=O)c2ccc(Br)cc2)C(O)(c2ccccc2)C1 (stereo unspecified) | inconclusive: 9.53 µM [inhibitor, partial curve]
C=C(C)CNC(=S)Nc1cccc(N)n1 | inactive
COc1ccc(C2(c3ccc(OC)cc3)NC(=O)N(CC(=O)Nc3ccccc3C(F)(F)F)C2=O)cc1 | inconclusive: 37.9 µM [inhibitor, partial curve, poor fit]
Cc1ccc(C)c(N2C(=O)N(Cc3c(F)cccc3Cl)c3ccccc3S2(=O)=O)c1 | inactive
C/C(=N/OC(=O)c1ccc(F)cc1)c1ccc(C)cc1 | active: 0.675 µM
Cc1cccc(NC(=O)c2nc[nH]c2C(=O)NCC(=O)OC(C)(C)C)c1 | inactive
CCS(=O)(=O)N1Cc2ccccc2CC1C(=O)Nc1nnc(SCc2c(Cl)cccc2Cl)s1 (stereo unspecified) | inactive
O=C1N/C(=N/N=C/c2ccc(O)cc2)SC1Cc1ccccc1 (stereo unspecified) | active: 2.39 µM

Structure (SMILES) | Potency
COc1ccc(C(=O)c2cnc(/N=C/N(C)C)s2)cc1 | inconclusive: 23.9 µM [inhibitor, single point]
COc1ccc(-c2noc(CSc3nc4ccc(C)cc4[nH]3)n2)cc1 | inconclusive: 23.9 µM [inhibitor, partial curve, poor fit]
CCC(C(=O)Nc1cc(C(F)(F)F)ccc1Cl)n1nc(C)c2sc3ccccc3c2c1=O (stereo unspecified) | inconclusive: 37.9 µM [inhibitor, partial curve, poor fit]
COc1cc(C(=O)N(Cc2ccccc2)c2cccc(C)c2)ccc1OC(F)F | inactive
CC(C)c1ccc(NC(=O)c2cc(Br)ccc2Br)cc1 | inconclusive: 26.9 µM [inhibitor, single point]
Cc1ccccc1C(=O)Nc1ccc2nc3n(c(=O)c2c1)CCCC3 | inconclusive: 37.9 µM [inhibitor, partial curve, poor fit]
COc1ccc(N=C2CCS(=O)(=O)c3sccc32)cc1 | inconclusive: 30.1 µM [inhibitor, partial curve, poor fit]
O=C(Cn1cnc2onc(-c3ccc(F)cc3)c2c1=O)N1CCN(c2ccc(F)cc2)CC1 | inactive
CC1(C)CC(=O)C=C(c2cccc(Cl)c2O)C1 | inactive
CCn1c(SCc2cccc(C(=O)O)c2)nnc1-c1ccccc1 | inconclusive: 21.3 µM [inhibitor, single point]
CCc1ccc(C(=O)NC(=S)NCc2cccnc2)cc1 | inconclusive: 26.9 µM [inhibitor, partial curve, poor fit]
CCOC(=O)Cc1csc(NC(=O)c2ccco2)n1 | inconclusive: 21.3 µM [inhibitor, partial curve]
COc1ccc(NC(=O)c2ccc(Cl)cc2)c[n+]1[O-] | inactive
CCOC(=O)N1CCN(C(=O)CSCC(=O)Nc2nc(-c3ccc(OC)cc3)cs2)CC1 | inconclusive: 23.9 µM [inhibitor, partial curve, poor fit]
O=C(N/N=C/c1ccco1)c1cc(-c2cccs2)[nH]n1 | inconclusive: 23.9 µM [inhibitor, single point]
Cc1ccsc1/C=N/N1CCN(Cc2ccccc2)CC1 | inconclusive: 37.9 µM [inhibitor, single point]
CCCOc1ccc(-c2nnn(CC(=O)N3CCCC(C)C3)n2)cc1 (stereo unspecified) | active: 15.1 µM
CC(C)NS(=O)(=O)c1ccc(NC(=O)Cc2cccs2)cc1 | inconclusive: 21.3 µM [inhibitor, partial curve, poor fit]
CCc1ccc(OC(=O)CN2C(=O)c3ccccc3C2=O)cc1 | inconclusive: 21.3 µM [inhibitor, partial curve]
O=C(Nc1ccc(S(=O)(=O)N2CCOCC2)cc1)c1ccc([N+](=O)[O-])s1 | inactive
O=c1/c(=C/c2ccco2)sc2n1CN(c1ccccc1)CN=2 | inconclusive: 16.9 µM [inhibitor, partial curve]
C=C(c1ccccc1)c1ccc(N(C)C)cc1 | inconclusive: 23.9 µM [inhibitor, single point]
CCOc1oc(-c2ccc(OC)cc2)nc1C(F)(F)F | inactive
O=C(Nc1onc2c1CCCC2)c1ccccc1 | active: 4.78 µM

Structure (SMILES) | Potency
CCCCNC(=O)N1CCCN(c2ccc(C#N)cn2)CC1 | inactive
CC1(C)COC(/C=C/c2cccc([N+](=O)[O-])c2)=N1 | inconclusive: 37.9 µM [inhibitor, single point]
C/C(N)=C(/C#N)C(=O)CSc1nn(-c2ccc(Cl)cc2)c(=S)s1 | inconclusive: 21.3 µM [inhibitor, single point]
CN(C(=O)c1ccccn1)c1nnc(-c2cnccn2)s1 | active: 10.7 µM
Cc1ccc2c(C)c(C(=O)N3CCN(c4cnccn4)CC3)oc2c1C | inconclusive: 30.1 µM [inhibitor, single point]
Nc1nc(-c2ccc3c(c2)CCO3)cs1 | inconclusive: 26.9 µM [inhibitor, single point]
CN(C)c1cccc2c1C(=O)c1ccccc1C2=O | inconclusive: 26.9 µM [inhibitor, partial curve]
CCn1c(C(=O)NCc2ccccc2Cl)cc2sc(Cl)cc21 | inconclusive: 19 µM [inhibitor, partial curve, poor fit]
O=c1[nH]c2ccccc2c(O)c1O | inconclusive: 10.7 µM [inhibitor, partial curve]
O=C(COC(=O)CCN=C1NS(=O)(=O)c2ccccc21)NNC(=O)c1ccc(Cl)cc1 | inactive
COc1ccc(Cc2nc3ccccc3n2Cc2ccccc2C)cc1 | inconclusive: 26.9 µM [inhibitor, partial curve, poor fit]
Cc1cccc(OCC(=O)NC(=S)N2CCCc3ccccc32)c1 | inconclusive: 26.9 µM [inhibitor, partial curve, poor fit]
CCc1ccc(-n2nc(CO)c(C(=O)NCc3ccccc3Cl)n2)cc1 | inconclusive: 15.1 µM [inhibitor, partial curve, poor fit]
Nc1c(C(=O)c2ccc(F)cc2)oc2ccccc12 | inconclusive: 16.9 µM [inhibitor, partial curve]
Cn1c(=O)c(=O)n(C)c2cc(NS(=O)(=O)c3ccc(Br)cc3)c(Cl)cc21 | inconclusive: 30.1 µM [inhibitor, single point]
c1ccc(Nc2nc3ccccc3[nH]2)nc1 | active: 23.9 µM
CC(=O)c1cc2c(cc1NC(=O)c1ccc(C)cc1)OCO2 | inconclusive: 3.38 µM [inhibitor, partial curve, poor fit]
CC(C)(C)C(=O)Nc1ccc(-c2cn3cccnc3n2)cc1 | active: 7.57 µM
O=C(Nc1ccncc1)Nc1cccc(Cl)c1Cl | inconclusive: 15.1 µM [inhibitor, partial curve]
CCCc1nc(SCC(=O)c2ccc(F)cc2)c2ccccc2n1 | inconclusive: 37.9 µM [inhibitor, partial curve, poor fit]
CCn1c2ccccc2c2cc(NC(=O)c3ccco3)ccc21 | inconclusive: 23.9 µM [inhibitor, single point]
COc1cc(/C=C2\SC(=S)N(CCC(=O)N3CCCCC3)C2=O)cc(OC)c1OC | inactive
COc1cc(C)ccc1OCc1cc(C(=O)N2CCCCCC2)no1 | inconclusive: 21.3 µM [inhibitor, single point]
